Among all 380,000 compounds or so, about 170 (0.045%) were called active. The inconclusive results got no clear call from the source; some entries with a clear call stand among them for comparison. Calls follow the shape of the dose curve; as a rule, active = well fitted inhibition curve with a large enough effect; inconclusive = small, poorly fitted or top-dose-only effect; inactive = no such curve, though single readings can be large or run the other way. Potencies of inconclusive entries are doubtful fits and often do not repeat.
molecular target: Phosphoglycerate kinase, glycosomal (Trypanosoma brucei brucei) (UniProt P07378); experiment: qHTS Assay to Find Inhibitors of Phosphoglycerate Kinase; conditions: PGK/GAPDH coupled, Kinase-Glo luminescence, 60 min; series mostly up to 57.5 µM; activity change, negative = inhibition: at the top concentration; also: nearly all actives have a fitted effect of over 60% in size
How it was run: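 Luminescent ATP detection (Kinase-Glo Plus) follows a 60-minute room-temperature incubation, with wells lacking PGK as controls. Buffer: 100 mM TEA (pH 7.6), 5 mM MgCl2, 0.01% Tween-20. Coupling enzyme GAPDH (100 nM final) supplies unstable 1,3-BPG in-well.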
% is scaled to controls: 0 for no effect and ±100 for the full control effect; potency is read from the fitted curve at half-maximal effect; tags tell the direction and shape of the fitted curve.

Potency, inconclusive:
Cc1ccc(NC(=O)CSc2nc(-c3cccs3)nc3cc(=O)[nH]n23)cc1 22.4 µM [inhibitor, partial curve, poor fit]
O=C(N/N=C\C=C\c1ccc([N+](=O)[O-])o1)c1cccs1 25.1 µM [inhibitor, single point]
C=CCN1C(=O)c2ccc(C(=O)NCC(c3ccccc3)N(C)C)cc2C1=O (centres undefined) 10 µM [inhibitor, partial curve]
COc1cccc(C(=O)Nc2ccc3c(c2)C(=O)c2ccccc2C3=O)c1 31.6 µM [inhibitor, partial curve, poor fit]
O=C1/C(=C/c2ccco2)SC(=S)N1c1cccnc1 15.8 µM [inhibitor, partial curve, poor fit]
O=C(Nc1nc2cc3c(cc2s1)OCCO3)c1ccco1 25.1 µM [inhibitor, single point]
O=C1/C(=C/C=C/c2ccco2)SC(=S)N1c1ccc(O)cc1 31.6 µM [inhibitor, single point]
Cc1cc(C(=O)NNC(=O)/C=C/c2ccco2)c(C)o1 17.8 µM [inhibitor, partial curve]
Cc1ccccc1NC(=O)CN1C(=O)N/C(=C\c2ccccc2OCc2ccc(C(=O)O)cc2)C1=O 15.8 µM [inhibitor, partial curve, poor fit]
CCOC(=O)c1c(S(=O)(=O)NCC(=O)Nc2cc(C)ccc2C)c(C)n(C)c1C 28.2 µM [inhibitor, partial curve]
CN(C)c1ccc(-c2nc3ccccn3c2/N=C/c2ccc(Br)cc2)cc1 35.5 µM [inhibitor, partial curve, poor fit]
O=[N+]([O-])c1cccc2c(S(=O)(=O)N3CCOCC3)cccc12 39.8 µM [inhibitor, single point]
CCCC1Nc2ccc(C(=O)O)cc2C2C=CCC12 (centres undefined) 39.8 µM [inhibitor, partial curve, poor fit]
O=C(CSc1nnc(Nc2ccccc2F)s1)NC(=O)CN1CCCC1=O 39.8 µM [inhibitor, single point]
CCOC(=O)C(=O)Cc1cccnn1 28.2 µM [inhibitor, partial curve]
CC1=Nc2ccccc2/C1=C/c1sc(=S)n(-c2cccc(C(=O)O)c2)c1O 39.8 µM [inhibitor, single point]
O=C(O)C(c1ccccc1)N1C(=O)/C(=C\c2ccc(O)c(O)c2)SC1=S (centres undefined) 3.98 µM [inhibitor, single point]
CCN(CC)c1ccc(C(=C2C=CC(=[N+](CC)CC)C=C2)c2ccc(S(=O)(=O)O)cc2S(=O)(=O)[O-])cc1 28.2 µM [inhibitor, partial curve, poor fit]
C/C(=N\Nc1ccc(Cl)c(C(=O)O)c1)c1ccc[nH]1 31.6 µM [inhibitor, single point]
O=C(/C=C/c1ccccc1)NCCc1ccccc1 28.2 µM [inhibitor, partial curve, poor fit]
CC[n+]1c(/C=C/c2ccc(N(C)C)cc2)ccc2ccccc21 11.2 µM [inhibitor, partial curve, poor fit]
COc1cccc(C(=O)Nc2ccc(N3CCCC3)cc2)c1 39.8 µM [inhibitor, single point]
CCc1ccc(NC(=O)COC(=O)/C=C/c2ccco2)cc1 22.4 µM [inhibitor, partial curve]
Cc1ccc(CSc2nnc(SCC(=O)N/N=C/c3c[nH]c4ccccc34)s2)cc1 8.91 µM [inhibitor, partial curve, poor fit]
Cc1occc1-c1nc(-c2ccccn2)no1 39.8 µM [inhibitor, single point]
N#Cc1c(SCC(=O)Nc2nncs2)sc2c(O)cc(=O)[nH]c12 20 µM [inhibitor, partial curve, poor fit]
COc1ccc2c(c1)c(=O)oc1cc(OCC(=O)NC3CCCCC3)ccc12 22.4 µM [inhibitor, single point]
O=C(Nc1cccc(C(F)(F)F)c1)c1ccc2nc(-c3ccco3)c(-c3ccco3)nc2c1 28.2 µM [inhibitor, partial curve, poor fit]
Cc1cc(NC(=O)c2cccc(F)c2)ncc1NC(=O)c1ccco1 14.1 µM [inhibitor, partial curve, poor fit]
COC(=O)c1ccc(NC(=O)CSc2nc3c(c(=O)n(C)c(=O)n3C)n2Cc2ccccc2)cc1 31.6 µM [inhibitor, partial curve, poor fit]
N#C/C(=C\c1ccc(-c2ccc(Cl)c(C(=O)O)c2)o1)c1nc2ccccc2[nH]1 39.8 µM [inhibitor, single point]
Cc1ccc(/C=C2\S/C(=N/S(=O)(=O)c3cccs3)NC2=O)cc1 31.6 µM [inhibitor, single point]
COc1ccc(CN2C(=O)NC3(CCCc4ccccc43)C2=O)cc1F (centres undefined) 39.8 µM [inhibitor, single point]
c1ccc(-c2cn3nc4c(nc3n2)CCCC4)cc1 14.1 µM [inhibitor, partial curve]
C/C(=N\NC(=O)c1n[nH]c2c1CCC2)c1ccco1 31.6 µM [inhibitor, single point]
Cc1ccn2cc(CC(=O)O)nc2c1 22.4 µM [inhibitor, single point]
O=C1C=CC(=O)c2c(O)c(N3CCN(CCOCCO)CC3)c(Br)c(O)c21 15.8 µM [inhibitor, partial curve]
Cc1c(OCc2ccc(C(=O)O)o2)ccc2c3c(c(=O)oc12)CCC3 22.4 µM [inhibitor, partial curve]
C=CCn1c(C)cc(C2=NNC(=NCC)SC2)c1C 12.6 µM [inhibitor, partial curve]
O=C(O)c1ccc(-n2cccc2/C=C2/NC(=O)N(c3cccc(Cl)c3)C2=O)cc1 28.2 µM [inhibitor, partial curve, poor fit]
CC(=O)OCC1=C(C(=O)O)N2C(=O)[C@@H](NC(=O)Cc3cccs3)[C@H]2SC1 35.5 µM [inhibitor, single point]
O=C(CSc1nnc(-c2c[nH]c3ccccc23)o1)N1c2ccccc2CCc2ccccc21 7.08 µM [inhibitor, single point]
Cc1cc(NC(=O)c2ccccc2)ncc1NC(=O)c1ccco1 17.8 µM [inhibitor, partial curve]
O=C(/C=C\Nc1ccc2c(c1)OCO2)c1cccs1 28.2 µM [inhibitor, partial curve, poor fit]
O=c1cc(-c2ccccc2Cl)oc2c(NS(=O)(=O)c3cc(Cl)cc(Cl)c3O)ccc(O)c12 28.2 µM [inhibitor, partial curve, poor fit]
COC(=O)C1=C(COc2ccccc2)NC(=O)NC1c1ccc2ccccc2c1 (centres undefined) 39.8 µM [inhibitor, partial curve, poor fit]
CC1CC(C)CN(C(=O)COC(=O)/C=C/c2ccco2)C1 (centres undefined) 39.8 µM [inhibitor, single point]
O=C(COC(=O)C1CCN(S(=O)(=O)c2cc([N+](=O)[O-])ccc2Cl)CC1)Nc1ncc(Cl)cc1Cl 28.2 µM [inhibitor, partial curve, poor fit]
COc1cccc(NC(=O)c2cnn(-c3ccccc3)c2C)c1 25.1 µM [inhibitor, partial curve, poor fit]
C/C(=N/NC(=O)c1cccs1)c1c(C)[nH]n(-c2nc3ccccc3s2)c1=O 14.1 µM [inhibitor, partial curve, poor fit]

Potency, active:
c1cc2c(cc1C1=NNC(=NC3CC3)SC1)OCCO2 12.6 µM
O=C(Nc1nc2ccccc2[nH]1)c1ccccc1F 8.91 µM
C=CC(=O)N1C/C(=C/c2ccc(F)cc2)C(=O)/C(=C\c2ccc(F)cc2)C1 10 µM

Activity change, negative = inhibition, inactive:
COc1cc(/C=C/c2[nH]c(=O)[nH]c(=O)c2[N+](=O)[O-])ccc1OCCC(C)C 4.02%
COC(=O)c1ccc2cc(OC)c(OC)cc2c1 -0.0801%
CCOC(=O)c1sc(=NC(=O)c2ccc(F)cc2)n(C)c1C 0.253%
CCCCNC(=S)N(C)/N=C/c1ccc(OCC(=O)Nc2c(C)cc(C)cc2C)c(OC)c1 -3.34%
O=C1CCNc2c(Cl)cccc21 -3.09%
Oc1ccc(C(=S)N2CCN(Cc3ccccc3)CC2)cc1 6.18%
O=C(NC1(O)C(=O)c2ccccc2C1=O)c1c(Cl)cccc1Cl -14.9%
CCC(=O)c1ccc(OCc2ccc(C(=O)c3ccccc3)cc2)cc1 -5.52%
O=C(Cc1ccccc1)Nc1cc(C(=O)c2ccccc2)ccc1N1CCOCC1 -6.17%
Cc1cc(NC(=O)c2ccc([N+](=O)[O-])cc2Cl)no1 -0.0731%
CCOC1=C/C(=C/c2c(N)n3nc(CC(=O)N4CCCCC4)sc3nc2=O)C=CC1=O 6.28%
